Laboratory results from article PMC4336329 (PLoS ONE, 2015).
In all, about 310,000 compounds went through this assay and about 14,000 (4.5%) showed an effect of 50% or more. The effect is printed as a negative number. The list shows a part of the results.

These compounds were tested against human ether-à-go-go-related gene (hERG) potassium channel (human, UniProt Q12809) (assay: primary screen, population patch clamp on CHO cells stably expressing hERG).
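Further: peak tail current of the secondary pulse compared with the same well before compound.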

Sequence of human ether-à-go-go-related gene (hERG) potassium channel (Q12809 whole entry, looked up): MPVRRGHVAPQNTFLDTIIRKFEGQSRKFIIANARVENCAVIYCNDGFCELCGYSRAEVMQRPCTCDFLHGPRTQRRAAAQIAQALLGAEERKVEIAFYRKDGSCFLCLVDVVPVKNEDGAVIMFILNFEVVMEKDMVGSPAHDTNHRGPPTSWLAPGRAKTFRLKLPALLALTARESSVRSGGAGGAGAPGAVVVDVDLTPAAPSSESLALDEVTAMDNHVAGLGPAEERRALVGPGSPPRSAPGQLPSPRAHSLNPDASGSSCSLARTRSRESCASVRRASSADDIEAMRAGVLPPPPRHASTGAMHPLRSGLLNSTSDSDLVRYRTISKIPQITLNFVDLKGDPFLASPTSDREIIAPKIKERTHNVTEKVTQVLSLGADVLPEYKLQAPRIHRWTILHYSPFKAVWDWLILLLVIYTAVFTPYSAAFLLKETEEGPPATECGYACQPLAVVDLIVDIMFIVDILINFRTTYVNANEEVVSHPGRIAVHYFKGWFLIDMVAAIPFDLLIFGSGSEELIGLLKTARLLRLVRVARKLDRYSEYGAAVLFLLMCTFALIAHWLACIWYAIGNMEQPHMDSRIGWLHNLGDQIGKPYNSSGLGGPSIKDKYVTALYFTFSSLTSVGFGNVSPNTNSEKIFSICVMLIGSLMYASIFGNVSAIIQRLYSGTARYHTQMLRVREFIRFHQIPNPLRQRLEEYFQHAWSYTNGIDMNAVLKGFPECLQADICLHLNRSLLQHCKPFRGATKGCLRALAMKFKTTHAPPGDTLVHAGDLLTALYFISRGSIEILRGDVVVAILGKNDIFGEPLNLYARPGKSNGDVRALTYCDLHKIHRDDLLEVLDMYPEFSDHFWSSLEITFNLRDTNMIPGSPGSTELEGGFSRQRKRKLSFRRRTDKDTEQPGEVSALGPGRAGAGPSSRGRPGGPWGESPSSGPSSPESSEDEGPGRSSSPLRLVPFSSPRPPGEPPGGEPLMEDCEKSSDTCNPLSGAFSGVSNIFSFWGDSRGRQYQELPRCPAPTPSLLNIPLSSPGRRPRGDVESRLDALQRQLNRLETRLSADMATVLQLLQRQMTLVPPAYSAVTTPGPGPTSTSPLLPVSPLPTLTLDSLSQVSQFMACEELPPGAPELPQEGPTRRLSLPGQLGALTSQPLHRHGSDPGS

Row | Compound | hERG current change (%, negative = inhibition) at 10uM
1 | COc1ccc2[nH]c(=O)c(CN(Cc3nnnn3Cc3ccc(F)cc3)CC3CCCO3)cc2c1 (centres unmarked) | -48.6%
2 | CCOc1ncccc1C(=O)OCC(=O)N(CC)c1ccccc1 | -6.17%
3 | CCCCOC(=O)C1=C(C)NC(=O)NC1c1ccc(OC)cc1 (centres unmarked) | 16.4%
4 | CC(=O)N(C)c1nnc(-c2cnccn2)s1 | 14%
5 | COC(=O)C1=C(Nc2ccc(C)cc2)C=C(C)C(C(=O)OC)C1c1ccc(OC)cc1 (centres unmarked) | 20.8%
6 | CCOC(=O)N1CCN(C(=O)CN(C)S(=O)(=O)c2ccc3c(c2)C(C)(C)C(=O)N3C)CC1 | 8.13%
7 | COc1ccc(N(C(=O)CNC(=O)c2ccco2)C(C(=O)NC2CCCCC2)c2ccncc2)cc1 (centres unmarked) | 14.1%
8 | C=CCNC(=S)Nc1ccc(Br)cc1F | 7.09%
9 | O=Cc1cn(CC(O)Cn2cc(C=O)c3ccccc32)c2ccccc12 | -0.272%
10 | CC1Cc2ccccc2N1C(=O)CN(C)CC(=O)Nc1ccc(F)cc1 (centres unmarked) | -37.5%
11 | CC(C)OC(=O)c1cc2ccccc2oc1=O | 11.4%
12 | CCOC(=O)c1sc(NC(=O)CNCc2ccccn2)c(C(=O)OCC)c1C | -3.45%
13 | O=C(Cc1ccccc1[N+](=O)[O-])N1CCN(Cc2ccc3c(c2)OCO3)CC1 | -1.67%
14 | CCOc1ccccc1NS(=O)(=O)c1cc2c3c(c1)C(C)C(=O)N3CCC2 (centres unmarked) | 5.26%
15 | CNC(=O)CN1C(=O)NC2(CCc3ccccc32)C1=O (centres unmarked) | 17.2%
16 | O=C(CN1C(=O)CSc2ccc(S(=O)(=O)N3CCOCC3)cc21)NCc1cccnc1 | 6.4%
17 | COc1ccc(OC)c(NC(=O)C(C)Oc2ccc(Br)cc2)c1 (centres unmarked) | 5.96%
18 | Fc1ccc(N2CCN(Cc3ccc4c(c3)OCO4)CC2)cc1 | -51.3%
19 | Cn1c(SCC(=O)c2ccccc2)nnc1-c1cccnc1 | -10.3%
20 | CCOC(=O)c1ccc(NC(=O)CSCC(=O)OCC(=O)c2ccccc2)cc1 | -0.367%
21 | CN(C)S(=O)(=O)c1cccc(NC(=O)Cc2ccsc2)c1 | -10.2%
22 | COc1ccc(N(CC(=O)Nc2nccs2)S(=O)(=O)c2c(C)nn(C)c2C)cc1 | -14.2%

Row | Compound | hERG current change (%, negative = inhibition) at 10uM
23 | COC(=O)C(CC(=O)O)NCc1ccco1 (centres unmarked) | 9.66%
24 | Clc1cccc(Cl)c1CN1CCN(c2ccccc2)CC1 | 11.8%
25 | Cc1sc(/N=C/c2ccccc2O)c(C#N)c1C | 27.8%
26 | O=C(CNC(=O)C1CCCCC1)Nc1ccccc1Cl | -4.43%
27 | COC(=O)c1cc(C(=O)OC)n(Cc2ccc(F)cc2)n1 | -12.9%
28 | CCOc1ccccc1NC(=O)NC1(C(=O)N2CCOCC2)CCCCC1 | 15.6%
29 | CCc1ccc(NC(=O)c2cccc(NC3=NC4CS(=O)(=O)CC4S3)c2)cc1 (centres unmarked) | 18%
30 | CSc1ccc(/C=N/NC(=O)c2ccc(C)c(C)c2)cc1 | -4.84%
31 | CC[C@H]1CC2CN3CCc4c([nH]c5ccccc45)C(C(=O)OC)(C2)C13.Cl (some centres unmarked) | -2.97%
32 | COc1cccc2cc(C(=O)N3CCN(C45CC6CC(CC(C6)C4)C5)CC3)c(=O)oc12 | 1.88%
33 | O=C(NN1CCOCC1)c1cnn2c(C(F)F)cc(-c3ccccc3)nc12 | 0.323%
34 | O=c1[nH]c(C2CCN(S(=O)(=O)c3ccc4c(c3)OCCO4)CC2)nc2c1nnn2Cc1ccccc1F | 4.55%
35 | CCOC(=O)C(Cc1ccc(N)cc1)N1C(=O)c2ccccc2C1=O.Cl (centres unmarked) | 11.7%
36 | Cc1ccc(C(=O)Nc2c(N)nc(SCC(=O)NCC3CCCO3)[nH]c2=O)cc1 (centres unmarked) | 26.3%
37 | O=C(c1ccco1)N1CCN(S(=O)(=O)c2ccc(Br)s2)CC1 | -16%
38 | COc1cc(/C=N/n2c(-c3cc(C)[nH]n3)n[nH]c2=S)ccc1O | 18.5%
39 | Fc1ccc(NC(=S)Nc2cccc3cnccc23)cc1 | 14.1%
40 | CC1(CC(=O)N/N=C/c2cc([N+](=O)[O-])c(O)cc2O)OCCO1 | 12.9%
41 | COc1nc(-c2ccccc2Cl)ccc1C#N | 1.38%
42 | Cc1cccc(N2CCN(C(=S)Nc3ccc4nc(N5CCN(C)CC5)cc(C)c4c3)CC2C)c1 (centres unmarked) | 5.63%
43 | CCCCc1nnc(NC(=O)Cn2cnc3ccccc3c2=O)s1 | -6.83%
44 | COC(=O)c1ccccc1N(C)S(=O)(=O)c1cc2c3c(c1)CCC(=O)N3CCC2 | -4.11%
